About 200 (0.47%) of roughly 43,000 compounds were called active. Inconclusive results (about 12%) are left out. The call rests on the fitted dose curve; in most records, active means well fitted cell-killing curve with a large enough effect; inconclusive means small, poorly fitted or top-dose-only effect, or effect the other way; inactive means flat fitted curve, though single readings scatter. This is one part of the list.

The values below come from PubChem BioAssay AID1508642 (National Center for Advancing Translational Sciences (NCATS), 2021).
On the % scale 0 is the no-effect control and ±100 the full control effect.

This assay in a line: Cell viability qHTS assay in S16 Pmp22-F2sN cells. Further: nearly all actives have a fitted effect of over 65% in size. Particulars: S16 Pmp22-F2sN Schwann cells (luciferase reporters placed in the Pmp22 gene) viability, CellTiter-Glo, 24 h; series mostly up to 57.5 µM; activity change, negative = cytotoxicity: at the top concentration. In outline: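 S16 Schwann cells carrying the Pmp22-F2sN reporter, seeded in 1536-well format, were exposed to library compounds for 24 h at 37C. Viability was read as CellTiter-Glo luminescence after 15 min at room temperature.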
Background: In qHTS, concentration-response curves come from the screen itself.
`Cc1ccc(CCNC(=O)CN2N=C(c3ccc(C)cc3)CCC2=O)cc1`: the “activity change, negative = cytotoxicity” value was inactive: 7.92%.
With `Cc1cccc(N2CCN(S(=O)(=O)c3c(C)nc4scc(C)n4c3=O)CC2C)c1` (stereo not drawn), the “activity change, negative = cytotoxicity” value is inactive: -2.65%.
The value for `Cn1nc(C(=O)Nc2ccccc2C#N)c2c1-c1ccccc1SC2` was inactive: 19.2%; that for `CCOc1cccc(C2c3c(oc4cc(C)c(C)cc4c3=O)C(=O)N2c2nc(C)c(C)s2)c1` (stereo not drawn) was inactive: -13.8%; that for `CC1CCN(S(=O)(=O)c2ccc3c(c2)N(CC(=O)Nc2ccc(F)c(Cl)c2)C(=O)CO3)CC1` was inactive: 0.211%.
The value for `COc1ccc(NC(=O)c2oc3ccccc3c2NC(=O)Cc2ccc(F)cc2)c(OC)c1` was inactive: 1.87%; that for `Cc1cc(=O)[nH]c(SCC(=O)N2CCN(c3ccccc3)CC2)n1` was inactive: 11%; that for `COc1ccc(-c2nc3ccc(C(=O)NCc4ccc(C)cc4)cc3nc2-c2ccc(OC)cc2)cc1` was inactive: -10.4%.
The value for `COc1ccc(Cl)cc1-n1c(CCC(=O)O)ccc1-c1ccc(C)cc1` was inactive: -0.171%.
Take `Cc1ccc(OCCn2c(COc3ccc(Cl)cc3)nc3ccccc32)cc1`: the “activity change, negative = cytotoxicity” value is inactive: 2.5%.
The value for `CCC(=O)N1CCc2cc(CNS(=O)(=O)c3cc(Cl)ccc3OC)ccc21` was inactive: 10.7%.
Then `COc1ccc(Br)cc1CNC(=O)CCSCc1ccc(Cl)cc1`, with inactive: -6.86%.
As to `Cc1nn(CC(=O)N2CCN(c3ccccc3)CC2)c(=O)c2cc3sccc3n12`, the “activity change, negative = cytotoxicity” value was inactive: -2.63%.
The value for `CCCCCSc1nnc2c(n1)OC(c1ccc(C)s1)N(C(C)=O)c1ccccc1-2` (stereo not drawn) was inactive: -20.4%; that for `COc1ccc(S(=O)(=O)NC2(C(F)(F)F)NC(=O)N(CCc3ccccc3)C2=O)cc1` (stereo not drawn) was inactive: 3.35%.
Regarding `COc1ccccc1NC(=O)CN1C(=O)C(c2ccc(F)cc2)=NC1(C)C`, the “activity change, negative = cytotoxicity” value was inactive: -0.415%.
The value for `Cc1cccc(N2CCN(C(=O)Nc3ccc(F)cc3)CC2C)c1` (stereo not drawn) was inactive: -5.3%.
The value for `Cc1ccccc1NC(=O)Nc1nnc(N(C)Cc2ccccc2)s1` was inactive: -6.21%.
The value for `Oc1ccccc1-c1nc(/C=C/c2ccc(F)cc2)no1` was inactive: -4.03%.
Regarding `Cc1c(Cl)cccc1N1CC(c2nc3ccccc3n2Cc2ccccc2F)CC1=O` (stereo not drawn), the “activity change, negative = cytotoxicity” value is inactive: -3.79%.
With `O=c1c2oc3ccccc3c2n(Cc2ccccc2F)c(=O)n1Cc1ccco1`, the “activity change, negative = cytotoxicity” value was inactive: -4.11%.
The value for `Cc1c(CNCCCc2ccccc2)c(C(=O)O)c(C)n1Cc1ccc(Cl)cc1` was inactive: -2.87%; that for `Cc1ccc(Cn2cc(CCC(=O)NC3CCCCC3)c3ccccc32)cc1` was inactive: -9.52%.
Turning to `Cc1cc(=O)[nH]c2nnc(SCc3cccc(F)c3)n12`, the “activity change, negative = cytotoxicity” value is inactive: -23.1%.
`CCOc1ccc(-c2ccc(NS(=O)(=O)c3cc(C)ccc3OC)cc2)nn1`: the “activity change, negative = cytotoxicity” value is inactive: -17.8%.
Regarding `Cc1ccc(N2CCN(C(=O)c3nn(C)c4c3CS(=O)(=O)c3ccccc3-4)CC2C)cc1` (stereo not drawn), the “activity change, negative = cytotoxicity” value was inactive: -17.6%.
For `Cc1cccc(NC(=O)Cn2c(=O)n(Cc3ccc4c(c3)OCO4)c(=O)c3ccccc32)c1`, the “activity change, negative = cytotoxicity” value is inactive: 0.406%.
With `CCS(=O)(=O)c1c(Nc2ccc(F)c(Cl)c2)sc(C(=O)c2ccccc2)c1N`, the “activity change, negative = cytotoxicity” value was inactive: -9.54%.
